Experimental data: a collection of fitness landscapes (doi:10.1016/j.celrep.2020.107928)
In all, about 81,000 sequences were measured (“one-hybrid fitness for binding parS DNA”: median about -0.17, highest 2% from about 0.51 on). The list shows a part of the results.

B1: Caulobacter ParB omega fusion; a variant is named by its letters at X, in order, B8GW30 (parent)
chain: MESVVVGEPGMSEGRRGLGRGLSALLGEVDAAPAQAPGEQLGGSREAPIEILQRNPDQPRRTFREEDLEDLSNSIREKGVLQPILVRPSPDTAGEYQIVAGERAWRAAQRAGLKTVPIMVRELDDLAVLEIGIIENVQRADLNVLEEALSYKVLMEKFERTQENIAQTIGKSXSHVANXMRLLXLPDEVQSYLVSGELTAXHARAIAAAADPVALAKQIIEGGLSVRETEALARKAPNLSAGKSKGGRPPRVKDTDTQALESDLSSVLGLDVSIDHRGSTGTLTITYATLEQLDDLCNRLTRGI

Variants of: B1
Assay: one-hybrid fitness for binding parS DNA (scaled: cognate 1, non-cognate 0); higher = stronger binding
Settings: with parS DNA site
Method in brief: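 Fitness here means the log change in variant-to-wild-type read ratio between plasmids sequenced before and after selection. That scale was set so cognate equals 1 and non-cognate equals 0. The selection was a bacterial one-hybrid screen of Caulobacter ParB libraries, four specificity codons randomised, in E. coli USO carrying a HIS3 reporter with the site 19 bp from the promoter, grown 48 hours at 37°C on M9-minus-histidine with 0.1 mM IPTG and 5 mM 3-AT.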

Point of comparison: RAAC, “one-hybrid fitness for binding parS DNA” value 0.98. Against it:
- TPRN — lower, ≤ 0.2
- QTQF — lower, ≤ 0.2
- CVAR — lower, ≤ 0.2
- HVTV — lower, ≤ 0.2
- CDKA — lower, ≤ 0.2
- ITYW — lower, ≤ 0.2
- ERGV — lower, ≤ 0.2
- TANH — lower, ≤ 0.2
- NYIG — lower, ≤ 0.2
- ECLS — lower, ≤ 0.2
- HKAS — lower, ≤ 0.2
- CCHL — lower, ≤ 0.2
- MTRI — lower, ≤ 0.2
- PWPT — lower, ≤ 0.2
- CRAD — lower, ≤ 0.2
- SVTH — lower, ≤ 0.2
- LALK — lower, ≤ 0.2
- FTMY — lower, ≤ 0.2
- YATH — lower, ≤ 0.2
- KHDS — lower, ≤ 0.2
- TSIH — lower, ≤ 0.2
- NHYR — lower, ≤ 0.2
- VPHF — lower, ≤ 0.2
- WGRL — lower, ≤ 0.2
- EITI — lower, ≤ 0.2
- KSRR — lower, ≤ 0.2
- HQST — lower, ≤ 0.2
- RFNG — higher, 1
- ATNH — lower, ≤ 0.2
- VDVV — lower, ≤ 0.2
- AMCN — lower, ≤ 0.2
- GCQR — lower, ≤ 0.2
- WPRS — lower, ≤ 0.2
- IYFG — lower, ≤ 0.2
- AAPE — lower, ≤ 0.2
- RCFP — lower, ≤ 0.2
- KWEL — lower, ≤ 0.2
- MKSN — lower, ≤ 0.2
- GNKY — lower, ≤ 0.2
- VLIG — lower, ≤ 0.2
- GKAE — lower, ≤ 0.2
- THPC — lower, ≤ 0.2
- DQPR — lower, ≤ 0.2
- INPC — lower, ≤ 0.2
- PVGA — lower, ≤ 0.2
- NTPW — lower, ≤ 0.2
- KANT — lower, ≤ 0.2
- NRSG — lower, ≤ 0.2
- WTRT — lower, ≤ 0.2
- IYNT — lower, ≤ 0.2
- GAKT — lower, ≤ 0.2
- EWQS — lower, ≤ 0.2
- FLAF — lower, ≤ 0.2
- HIST — lower, ≤ 0.2
- HSNV — lower, ≤ 0.2
- PFTK — lower, ≤ 0.2
- AELR — lower, ≤ 0.2
- SFFI — lower, ≤ 0.2
- RELP — lower, ≤ 0.2
- QARF — lower, ≤ 0.2
- DPAS — lower, ≤ 0.2
- RKNI — lower, ≤ 0.2
- KGTR — lower, ≤ 0.2
- CLHL — lower, ≤ 0.2
- DASI — lower, ≤ 0.2
- TTKQ — lower, ≤ 0.2
- KSFF — lower, ≤ 0.2
- GHWA — lower, ≤ 0.2
- PHIK — lower, ≤ 0.2
- KLGR — lower, ≤ 0.2
- MPGY — lower, ≤ 0.2
- NLSN — lower, ≤ 0.2
- QSDR — lower, ≤ 0.2
- ADLV — lower, ≤ 0.2
- KHEG — lower, ≤ 0.2
- ASFA — lower, ≤ 0.2
- LWNR — lower, ≤ 0.2
- KGAN — lower, ≤ 0.2
- QLFM — lower, ≤ 0.2
- TAWI — lower, ≤ 0.2
- KRRK — lower, ≤ 0.2
- KDMG — lower, ≤ 0.2
- LKRI — lower, ≤ 0.2
- GYKL — lower, ≤ 0.2
- NIKQ — lower, ≤ 0.2
- QLRL — lower, ≤ 0.2
- GAPT — lower, ≤ 0.2
- HRLK — lower, ≤ 0.2
- RNAW — lower, ≤ 0.2
- YCAL — lower, ≤ 0.2
- RFRD — lower, ≤ 0.2
- SRGE — lower, ≤ 0.2
- YLAT — lower, ≤ 0.2
- MNPL — lower, ≤ 0.2
- MFVT — lower, ≤ 0.2
- AVYT — lower, ≤ 0.2
- TWQS — lower, ≤ 0.2
- HKGC — lower, ≤ 0.2
- GNDV — lower, ≤ 0.2
- VHHN — lower, ≤ 0.2
- GANC — lower, ≤ 0.2
- GLNP — lower, ≤ 0.2
- KQMR — lower, ≤ 0.2
- AADR — lower, ≤ 0.2
- MNDS — lower, ≤ 0.2
- PTRN — lower, ≤ 0.2
- PKKF — lower, ≤ 0.2
- SPSF — lower, ≤ 0.2
- VNGK — lower, ≤ 0.2
- CYVS — lower, ≤ 0.2
- WSNC — lower, ≤ 0.2
- QGKL — lower, ≤ 0.2
- AQIV — lower, ≤ 0.2
- SFTY — lower, ≤ 0.2
- KCCV — lower, ≤ 0.2
- HPCW — lower, ≤ 0.2
- INYP — lower, ≤ 0.2
- HVGL — lower, ≤ 0.2
- RYDH — lower, ≤ 0.2
- WYHG — lower, ≤ 0.2
- RSRK — lower, ≤ 0.2
- PATP — lower, ≤ 0.2
- PIQC — lower, ≤ 0.2
- IRYC — lower, ≤ 0.2
- SPAV — lower, ≤ 0.2
- LRSV — lower, ≤ 0.2
- TWMY — lower, ≤ 0.2
- FYVC — lower, ≤ 0.2
- QGNE — lower, ≤ 0.2
- WFKG — lower, ≤ 0.2
- GFNR — lower, ≤ 0.2
- KTSK — lower, ≤ 0.2
- LIYR — lower, ≤ 0.2
- RNFQ — lower, ≤ 0.2
- YQTN — lower, ≤ 0.2
- CRRC — lower, ≤ 0.2
- SKQF — lower, ≤ 0.2
- QRRL — lower, ≤ 0.2
- PHLT — lower, ≤ 0.2
- QAQT — lower, ≤ 0.2
- QPVF — lower, ≤ 0.2
- NTSG — lower, ≤ 0.2
- APWG — lower, ≤ 0.2
- RGFL — lower, ≤ 0.2
- AYWA — lower, ≤ 0.2
- DLFE — lower, ≤ 0.2
- SLCV — lower, ≤ 0.2
- CSMD — lower, ≤ 0.2
- KWAR — lower, ≤ 0.2
- QGQR — lower, ≤ 0.2
- RHCV — lower, ≤ 0.2
- LRHK — lower, ≤ 0.2
